Assay results: PubChem BioAssay AID1508624 (National Center for Advancing Translational Sciences (NCATS), 2021)
In all, about 48,000 compounds went through this assay and about 120 (0.25%) were called active. About 4% were inconclusive and are not listed. Calls follow the shape of the dose curve; as a rule, active = well fitted activation curve with a large enough effect; inconclusive = small, poorly fitted or top-dose-only effect, or another doubt; inactive = no such curve, though single readings can be large or run the other way. The list shows a part of the results.

Assay: Primary qHTS for Identification of Small Molecule Activators of Huntingtin-Antisense Promoter Activity; also: nearly all actives have a fitted effect of over 55% in size
Settings: HEK293 HTT-AS promoter firefly luciferase reporter, 24 h; series mostly up to 57.5 µM; activity change, positive = activation: at the top concentration
How it was run: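 Luminescence was read after Dual-Glo reagent and a 10 min room-temperature incubation. Values were normalized to vehicle (0% activity) and zero RLU (-100% activity). Reporter HEK293 cells had been exposed to compounds (up to 57.5 uM final) for 24 h.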

Activity change, positive = activation, inactive:
CN1CCN(c2nc3c(S(=O)(=O)c4ccc(Cl)cc4)nnn3c3ccsc23)CC1 -9.32%
COc1ccc(S(=O)(=O)n2nc(C)c(S(=O)(=O)N3CCCCCC3)c2C)cc1C -9.86%
O=C(NCCc1csc(-c2ccc(C(F)(F)F)cc2)n1)C(=O)Nc1ccc(F)c(Cl)c1 -9.49%
CCOc1ccccc1NS(=O)(=O)c1ccc(N2CCCCS2(=O)=O)cc1 -6.85%
CCOC(=O)c1c(N)n(-c2ccc(CC)cc2)c2nc3ccccc3nc12 -21.4%
Cc1ccc(C)c(NC(=O)Cn2c(SCC(=O)NCc3ccccc3)nc3ccccc32)c1 -12.5%
O=C(CN1C(=O)CSc2ccc(S(=O)(=O)N3CCOCC3)cc21)NCCCN1CCCCC1 -1.57%
CC(C)CCCC(C)CCCC(C)CCCCC(C)CCCC(C)CCCC(C)C (configuration not stated) -0.709%
Cc1ccc(N(CC(=O)N2CCN(c3ccccc3)CC2)S(=O)(=O)c2c(C)noc2C)cc1 -22.4%
Cc1nc(-c2ccc(F)cc2)sc1CCNC(=O)c1cccs1 -8.98%
CC(=O)N1CCOc2cc(S(=O)(=O)NCc3ccccc3Cl)c(Cl)cc21 -6.02%
CCc1ccc(NC(=O)Cn2c(=O)n(-c3ccccc3C)c(=O)c3c2c2cc(OC)ccc2n3C)cc1 -39.9%
O=C(c1ccc2c(c1)N(Cc1cccc(Cl)c1)C(=O)c1ccccc1S2=O)N1CCC(Cc2ccccc2)CC1 (configuration not stated) -32.4%
CCOC(=O)c1c(S(=O)(=O)N2CCC(C(=O)Nc3ccc(C)c(Cl)c3)CC2)c(C)n(C)c1C -4.98%
O=C(c1cccc([N+](=O)[O-])c1)N1CCN(c2ccc(Nc3ccccc3)nn2)CC1 -15.8%
COc1nnc(-c2ccc(N3CCCCC3)c(NC(=O)c3ccc(C)cc3)c2)c2ccccc12 -18.7%
CC[N+](CC)(CC)CCOC(=O)C(C1CCCC1)C1CCCC1 -6.17%
O=S(=O)(c1ccc(-c2cnc(C3CC3)o2)cc1)N1CCN(c2ccc(F)cc2)CC1 -12.5%
CCn1nc(C)c2c(-c3ccccc3)cc(=O)n(C(C)C(=O)NCCc3ccc(Cl)cc3)c21 (configuration not stated) -28.6%
CCOc1ccc(NC(=O)CCCn2c(C)c3cnn(-c4ccccc4)c(=O)c3c2C)cc1 -5.95%
COc1ccc(OC)c(NC(=O)CSC2=Nc3ccccc3C3=NC(CC(=O)NCCc4ccccc4)C(=O)N23)c1 (configuration not stated) 14.2%
CCOc1cccc(CNCCCSc2nnnn2C)c1 -10.2%
Oc1c(C(c2ccccc2)N2CCCC2)sc2nc(-c3ccco3)nn12 (configuration not stated) -9.81%
COc1ccc(-c2onc(C)c2C)cc1S(=O)(=O)NCCc1ccccc1 -33.1%
CCOC(=O)Cc1ccc(NC(=O)NC(C)c2c(-n3cccc3)sc(C)c2C)cc1 (configuration not stated) -25%
COc1ccc(CCN2C(=O)N(c3cccc(OC)c3)C(=O)C2CC(=O)Nc2ccccc2)cc1 (configuration not stated) 0%
Cc1ccc(C)c(Cn2c(=O)n(-c3ccccc3)c(=O)c3c4c(sc32)CCCC4)c1 -16.2%
CCOC(=O)c1c(C)[nH]c(CCC(=O)NCc2cc(OC)c(OC)c(OC)c2)c1C 4.44%
COc1cc(-n2c(=O)c3ccccc3n(Cc3cccc(Cl)c3)c2=O)cc(OC)c1OC -28.5%
CCNC(=O)CC1C(=O)N(c2ccc(C)cc2)C(=O)N1CCOC (configuration not stated) -12.6%
COc1ccc(CNC(=O)CN2C(=O)CCn3nc(-c4cn(C)c5ccccc45)cc32)cc1 -2.75%
COc1ccc(CCNC(=O)CN(c2ccccc2)S(=O)(=O)N(C)C)cc1OC -22.4%
CC(=O)N1CCC(N(CCCOC(C)C)C(=O)Nc2ccc(C)c(C)c2)CC1 -6.34%
Cc1ccc(NC(=O)c2oc3ccc(S(=O)(=O)N4CCC5(CC4)OCCO5)cc3c2C)cc1Cl -19.7%
CCc1cccc(C)c1NC(=O)CSc1nc2ccccc2nc1Cc1ccccc1 -14.8%
COc1ccc(-c2nc3cc(NC(=O)COc4ccccc4C)ccc3o2)cc1 13%
O=C(CN1C(=O)CCSc2ccc(S(=O)(=O)N3CCCC3)cc21)Nc1cccc(F)c1 -7.88%
CCOC(=O)C(C)NC(=O)c1c2c(nc3ccccc13)C(=O)N(C1CCCCC1)C2 (configuration not stated) 3.01%
COc1cc(C(c2c(C)[nH][nH]c2=O)c2c(C)[nH][nH]c2=O)ccc1OC(=O)c1ccccc1OC 3.32%
COC(=O)CC1Oc2ccccc2-n2cc(-c3ccc(F)cc3)nc21 (configuration not stated) -22.1%
Cc1cccc(NC(=O)CSC2=Nc3ccccc3C3=NC(CCC(=O)NCc4ccco4)C(=O)N23)c1 (configuration not stated) -5.29%
COc1cc(OC)c(NC(=O)Cn2ncn3c(cc4cc(C)ccc43)c2=O)cc1Cl -0.424%
Cn1cc(C=C2C(=O)Nc3cccnc32)c2ccccc21 18%
COc1ccccc1CNC(=O)Cn1cc2c(n1)-c1c(oc(C(=O)N3CCOCC3)c1C)CC2 -24.8%
COC(=O)c1sccc1S(=O)(=O)N(CC(=O)Nc1cccc(C)c1C)c1ccc(C)c(C)c1 -25.8%
CC(C)CN(CCNC(=O)CCN1N=C(c2ccccc2)CCC1=O)CC(C)C -8.1%
CCSc1nc2ccccc2c(OCc2ccc(Cl)cc2)c1C(=O)OC -0.751%
COc1ccc2c(c1)c1c(c(=O)n(CCc3ccccc3)c(=O)n1Cc1cccc(F)c1)n2C -6.7%
Cc1ccc(-c2onc(C)c2C)cc1S(=O)(=O)Nc1ccccn1 -3.18%
CC(C)(C)OC(=O)N1CCC(c2c(C(=O)N3CCN(Cc4ccccc4)CC3)cnn2-c2cccc(Cl)c2)CC1 -19.9%
CCC(=O)N1CCc2cc(CNS(=O)(=O)c3ccc(CC(C)C)cc3)ccc21 -29.8%
CCN1CCN(c2ncc3c(n2)CCN(Cc2ccccc2C)C3)CC1 -12.9%
COc1ccc(-c2nc(CS(=O)CC(=O)NCCc3ccc(Cl)cc3)c(C)o2)cc1OC (configuration not stated) -14.2%
CC(C)CCNC(=O)C1CCN(C(=O)c2cc3sccc3n2Cc2ccc(Cl)cc2)CC1 -62.1%
Cc1ccc(CS(=O)(=O)c2ncc(Cl)c(C(=O)Nc3nnc(C(C)C)s3)n2)cc1 -91.5%
COc1cc(CN(C(=O)c2ccccc2F)C2CCS(=O)(=O)C2)cc(OC)c1OC (configuration not stated) 12.6%
Cc1cccc(N2CCN(C(=O)Cn3c(-c4cccs4)cc4ccccc43)CC2)c1C -23.7%
Cc1ccc2c(CC(=O)Nc3ccc(S(=O)(=O)N4CCCCC4)cc3)coc2c1C -33.7%
CCCS(=O)(=O)N1CC(=O)N(c2ccc(C)c(Cl)c2)C(C)(C(=O)NC2CCCCCC2)C1 (configuration not stated) -23.9%
CCCCNC(=O)CCCN1C(=O)c2ccccc2Sc2ncccc21 -14.2%
Oc1c(C(c2ccc(F)cc2)N2CCN(Cc3ccccc3)CC2)sc2nc(-c3ccco3)nn12 (configuration not stated) -21.5%
CN1C(=O)C2(c3ccccc31)N(c1cccc(C(F)(F)F)c1)C(=O)CS2(=O)=O (configuration not stated) -21.2%
COc1ccc(Nc2nn3c(=O)c4cc5c(cc4nc3s2)OCO5)c(OC)c1 -11.9%
Cc1cccc(N(C)S(=O)(=O)c2cc(-c3cnc(C4CC4)o3)ccc2C)c1 -45.5%
O=C(CCNS(=O)(=O)c1ccc2c(c1)CCN2C(=O)C1CC1)N1CCN(c2cccc(Cl)c2)CC1 -46.6%
CCOc1ccc(/C=C/C(=O)Nc2ccc3nc(N(CC)CC)cc(C)c3c2)cc1OC -15.1%
CCc1ccc(C2c3c(-c4ccccc4O)n[nH]c3C(=O)N2Cc2cccnc2)cc1 (configuration not stated) -37.7%
CCC(=O)N1c2ccc(S(=O)(=O)CCC(=O)Nc3ccc(OC)cc3OC)cc2CC1C (configuration not stated) -0.969%
O=C(NCC1CCN(Cc2ccccc2F)CC1)Nc1ccc(F)c(Cl)c1 -16%
COc1ccc(-c2nc3sc(CCNS(=O)(=O)c4ccccc4)c(C)n3n2)cc1 -11.6%
CC(C)c1ccc(N(CC(=O)O)S(=O)(=O)c2ccc3[nH]c(=O)c(=O)[nH]c3c2)cc1 -1.04%
COc1ccc(Br)cc1CNC(=O)CN1C(=O)c2cccnc2Oc2ccc(C)cc21 -25.3%
Cc1ccc2oc(C(=O)Nc3ccc(S(=O)(=O)Nc4nccc(C)n4)cc3)cc(=O)c2c1 -2.04% [at 11.5 µM, percent change from vehicle, -100% = no light]
Cc1ccc2ncc3c(-c4ccc(F)cc4)nn(CC(=O)Nc4ccccc4C)c3c2c1 -2.14%
Cc1ccc(S(=O)(=O)Cc2nc(-c3ccc(C(=O)NCCCOC(C)C)cc3)oc2C)cc1 13%
CCCCCCCN(CC)CCCC(O)c1ccc(NS(C)(=O)=O)cc1 (configuration not stated) -13.7%
CCOc1ccc(C(=O)Nc2cc3c(cc2N2CCCC2)n(C)c(=O)c(=O)n3C)cc1OCC -10.3%
CSc1ccc(CCNC(=O)CCCn2c(=O)c3cccn3c3ccccc32)cc1 -28.2%
CSc1ncc2c(n1)-c1ccccc1N(Cc1ccccc1)S2(=O)=O -10.7%
Cc1ccc2[nH]c3c(=O)n(CC(=O)Nc4ccc(Br)cc4C)ncc3c2c1 -9.08%
O=C1c2[nH]nc(-c3ccc(F)cc3)c2C(c2ccccc2F)N1c1ccccc1 (configuration not stated) -21.2%
COc1ccc(NC(=O)C2CCCN(S(=O)(=O)c3c(C)[nH]c(=O)[nH]c3=O)C2)c(OC)c1 (configuration not stated) -9.56%
O=C(NCc1ccc(F)cc1)C(=O)NCC(c1ccc2c(c1)OCO2)N1CCOCC1 (configuration not stated) -8.52%
Cc1cccc(-c2nc3nc(C)cc(NC(C)c4ccccc4)n3n2)c1 (configuration not stated) 8.82%
COc1ccc(C(=O)N(Cc2ccco2)Cc2ccc(C)o2)cc1 -9.9%
COc1cc(NS(=O)(=O)c2ccc(NC(=O)c3ccc(Cl)cc3Cl)cc2)nc(OC)n1 -4.95%
CNC(=O)c1c(NC(=O)/C=C/c2ccccc2)sc2c1CCC2 5.14%
Cc1ccc2nc(-c3ccc(NC(=O)COc4ccc(Br)cc4Br)cc3)sc2c1 -0.0451%
CCOc1ccc(NC(=O)Cn2nnc(-c3nc(-c4ccncc4)no3)c2N)cc1 -3.84%
Cc1ccccc1NC(=O)/C(C#N)=C/c1ccc(Cl)cc1Cl -6.78%
CCc1ccc(NCc2cc3cc4c(cc3n(CC(=O)Nc3ccccc3C)c2=O)OCCO4)cc1 -8.56%
CCOC(=O)c1ccc(NC(=O)CC(=O)Nc2ccc3nc4n(c(=O)c3c2)CCCCC4)cc1 -24.2%
